The text below walks through data of ChEMBL document CHEMBL1201862, “PubChem BioAssay data set” (2004).

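A five-concentration, 48-hour dose response in 96-well plates underlies each endpoint, interpolated linearly between surrounding concentrations. At the GI50, growth is halved.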 Activity calls are given as the source filed them. No stated cut-off is given here; in the data, active = GI50 up to about 1.1 µM and inactive = higher.

The subject of this assay is NCI-H322M. The assay is described as follows: DTP human tumour cell line panel, 48 h.
As to `O=[N+]([O-])c1ccc(Nc2nc3ccccc3s2)cc1`, the GI50 was inactive: 36.1 µM.

On to `C=C(C)CNCCN`, for which the GI50 was inactive: > 100 µM. Under `OC(c1ccccc1)(c1ccccc1)c1ccncc1` stands inactive: > 100 µM. Under `CN(C)CCNC(=O)c1cccc2nc3cccc(F)c3nc12` stands inactive: 1.87 µM.

Take `O=C(NCP(=O)(c1ccccc1)c1ccccc1)OCc1ccccc1`: the GI50 is inactive: 77.3 µM. Turning to `COc1ccc2nc(/C(N)=C\C#N)ccc2c1`, the GI50 was inactive: > 100 µM.

For the compound `Cc1cc2c(c(C(N)=O)c1C)-c1cccc(Cl)c1C2=O`, the GI50 was inactive: > 100 µM. Under `COc1cc(S(=O)(=O)Nc2ccc(-c3csc(/N=C\c4ccccc4)n3)cc2)ccc1Cl` stands inactive: 65 µM.

Turning to `C=CCN1C(=O)C[C@H](Cc2ccccc2)NC(=O)C[C@H](Cc2ccccc2)N(CC=C)C(=O)C[C@H](Cc2ccccc2)NC(=O)C[C@@H]1Cc1ccccc1`, the GI50 is inactive: 20.7 µM.

For `Cc1cc(=O)[nH]c2c1C(=O)c1c(C)cc(=O)n(C)c1C2=O`, the GI50 is active: 0.0159 µM. As to `O=c1cc(NNc2ccccc2F)[nH]c(=O)[nH]1`, the GI50 was inactive: 27.2 µM. Under `O=C1CC(=O)n2cnc3cccc(c32)N1` stands inactive: > 100 µM; under `COc1ccc(/C(CC2OC(=O)c3ccccc32)=N\NC(N)=O)cc1` (configuration not stated), inactive: > 100 µM. Under `CCc1nc2ccc(/N=N/N(C)C)cc2[nH]1` stands inactive: > 100 µM; under `CC(=O)CC(=O)ON(C)C(C)=O`, inactive: > 100 µM; under `O=C1/C(=C/c2cc3c(=O)c4ccccc4sc3s2)NC(=S)N1c1ccccc1`, inactive: > 100 µM.

Consider `COc1ccc2ccc3c(c2c1)CN1CCc2cc(OC)c(OC)cc2C1C3` (configuration not stated), for which the GI50 was inactive: > 100 µM. With `CC[C@@]1(O)C(=O)OCc2c1cc1n(c2=O)Cc2c-1nc1ccccc1c2/C=N\NC(=O)CN`, the GI50 is inactive: 2.7 µM. Under `O=P(O)(OCC(O)O)OCC(O)O` stands inactive: > 100 µM; under `O=C(O)c1cccc2cccc(-c3c4ccc(=O)cc-4oc4cc(O)ccc34)c12`, inactive: > 100 µM; under `O=c1cc(CO)oc(C(O)c2ccccc2)c1O` (configuration not stated), inactive: > 100 µM. Then `COC1CC(OC2C(C)OC(OC3C(C)OC(OC4C(C)OC(O[C@H]5CC[C@@]6(C)C(=CC[C@]7(O)[C@@H]6C[C@@H](O)[C@@]6(C)[C@]7(O)CC[C@@]6(O)C(C)=O)C5)CC4OC)CC3OC)CC2OC)OC(C)C1O` (some centres not stated), with inactive: > 12.5 µM; and `CCN(CC)CC(=O)O[C@]1(CC)C(=O)OCc2c1cc1n(c2=O)Cc2cc3ccccc3nc2-1`, with active: 0.0723 µM. Then `C=CCc1cc(-c2n[nH]c(=S)[nH]2)ccc1N/N=N/c1ccc(C(=O)O)cc1`, with inactive: > 100 µM.

As to `CCOC(=N)CC(=O)NC(C)c1ccccc1` (configuration not stated), the GI50 is inactive: > 100 µM.

With `CN(C)CC/C(=N\Nc1ccc(Cl)c(Cl)c1)c1ccccc1`, the GI50 was inactive: 4.91 µM.

`COC(=O)c1cnc(Cl)c([N+](=O)[O-])c1`: the GI50 was inactive: 15.2 µM. Then `NC(=O)NC(=O)c1cccc(CNc2ccc(C(=O)N[C@@H](CCC(=O)O)C(=O)O)cc2)n1`, with inactive: > 100 µM; and `Ic1ccc2c(c1)N(c1ccccc1)c1cc([N-]c3ccc4nc5ccc(I)cc5[n+](-c5ccccc5)c4c3)ccc1N2`, with inactive: > 100 µM. Then `CCCCCCCCCCCCC(Br)C(C)=O` (configuration not stated), with inactive: > 100 µM; and `CSc1nc(NC2OC(CO)C(O)C(O)C2O)c(N)c(=O)[nH]1` (configuration not stated), with inactive: > 100 µM; and `c1ccc2c(c1)nc1ccccn12`, with inactive: > 100 µM.

Turning to `CCC(CC)C(=O)OC[n+]1cccc(-c2c(COC(=O)NC(C)C)c(COC(=O)NC(C)C)c3n2CCC3)c1`, the GI50 was inactive: > 100 µM. Under `CC(C)(Cl)C(Br)CCC(C)(Br)C(Br)CBr` (configuration not stated) stands inactive: 23.8 µM. Then `Cc1cccc(Cl)c1NC(=O)/C=C/c1ccccc1`, with inactive: 21.9 µM. Under `CCC(C#N)NCc1ccc(CNC(C#N)CC)cc1` (configuration not stated) stands inactive: > 100 µM. Take `O=C(CBr)N1CCC2(CC1)SSC1(CCN(C(=O)CBr)CC1)S2`: the GI50 was inactive: 2.26 µM. Take `CC1=NNC(=O)C1C1C(=O)NN=C(c2c[nH]c3ccccc23)C1Br` (configuration not stated): the GI50 was inactive: 75.5 µM. Then `CO/N=C1/c2sccc2[C@H](NC(=O)C(Cc2ccccc2)NC(=O)OC(C)(C)C)[C@@H]1O` (some centres not stated), with inactive: > 100 µM. As for `CCOC(=O)C1=C(C)N(NC(N)=O)C2(O)CCCC(=O)C12C` (configuration not stated), the GI50 was inactive: > 100 µM. Turning to `C[C@H](CCC(=O)O)[C@H]1CC[C@@]2(C)[C@@H]3C(=O)C[C@H]4C(C)(C)[C@@H](O)CC[C@]4(C)[C@H]3C(=O)C[C@]12C`, the GI50 was inactive: > 100 µM.

Regarding `O=[N+]([O-])c1cccc(S(=O)(=O)N/N=C/c2cc(I)cc([N+](=O)[O-])c2O)c1`, the GI50 is inactive: 28.5 µM. Under `CC(C)c1cccc(C(C)C)c1NC(=O)/C(Cc1nc2ccc(Cl)cc2nc1O)=N\NC(=O)C[N+](C)(C)C` stands inactive: > 100 µM; under `COc1ccc2c(c1OC)C(C=C(c1ccccc1)c1ccccc1)CN(C)C2` (configuration not stated), inactive: 27.4 µM; under `NS(=O)(=O)c1ccc(NC(=S)N/C=C2\C(=O)Nc3ccccc3C2=O)cc1`, inactive: > 100 µM. As for `COc1ccc(CNc2cc(OC)cc(OC)c2)cc1`, the GI50 is inactive: 81.5 µM. Under `CNc1nncc2[nH]cnc12` stands inactive: > 100 µM; under `COC(=O)CC(c1cn(S(=O)(=O)c2ccc(C)cc2)c2ccccc12)C1C[C@@H](C(=O)OC)N(C(=O)OC(C)(C)C)C1=O` (some centres not stated), inactive: 65.9 µM.

As for `Cn1c(=O)c2c(nc3sc4ncccc4c(=O)n32)n(C)c1=O`, the GI50 is inactive: > 100 µM. Under `COc1cc(C2SC(=N)Nc3c2c(C)nn3C(=O)Cc2ccccc2)cc(OC)c1OC` (configuration not stated) stands inactive: > 100 µM; under `Clc1cc2nc(C3CCCCO3)[nH]c2cc1Cl` (configuration not stated), inactive: 28.1 µM. Turning to `CCOc1cc(NC(C)=O)ccc1C(=O)NN1C(=O)C(Oc2ccccc2)C1c1ccccc1` (configuration not stated), the GI50 was inactive: > 100 µM. Under `COC(=O)CN1CCS/C1=N/C#N` stands inactive: > 100 µM; under `COC(=O)C1=COC(OC2OC(CO)C(O)C(O)C2O)C2C3CN4CCc5c([nH]c6ccccc56)C4(CC12)O3` (configuration not stated), inactive: > 100 µM; under `C=C1c2nc3ccccc3n2C=C(c2ccc(Cl)cc2)N1c1ccc(OCCN2CCCCC2)cc1`, inactive: > 45 µM. Consider `CCN(CC)CCSc1c2cc(OC)ccc2nc2ccc(OC)cc12`, for which the GI50 is inactive: 12.7 µM.

For `S=C1N=C2C(=N1)n1c3c(c4ccccc41)CCCC23` (configuration not stated), the GI50 was inactive: > 100 µM. As to `CS/C(=N\c1ccccc1Cl)NC(=O)c1ccc(Br)cc1`, the GI50 was inactive: 63 µM. `O=C1OC(c2ccccc2)=N/C1=C\c1ccc(Br)cc1`: the GI50 was inactive: > 100 µM. Then `C=CCc1cc(C(Cc2ccccc2)NC(C)C)cc(OCc2ccccc2)c1OCc1ccccc1` (configuration not stated), with inactive: 15.3 µM; and `Cc1nc2c(=O)n3c4c(cccc4c2o1)CCC3`, with inactive: > 100 µM. Then `N#Cc1c(N)c(-c2ccc(Cl)cc2)c(F)c2ccccc12`, with inactive: > 100 µM.

In the case of `COc1cc(=O)oc(/C=C/CO)c1C`, the GI50 is inactive: > 100 µM. Then `C=C1c2nc3ccccc3n2C=C(c2ccc(OC)cc2)N1c1ccccc1`, with inactive: > 89.5 µM; and `CN(CCc1ccc(Cl)c(Cl)c1)CCN(C)CCN1CCCC1`, with inactive: 10.1 µM.

Regarding `CCCN(CCCC(NC(C)=O)C(=O)NCc1ccccc1)C(=O)NC` (configuration not stated), the GI50 was inactive: > 100 µM.

In the case of `COc1ccc(NC(=O)NNS(=O)(=O)c2ccc(C)cc2)cc1`, the GI50 was inactive: > 100 µM. Consider `O=Cc1c[nH]c2c(=O)[nH]cnc12`, for which the GI50 is inactive: > 100 µM. Then `COc1ccccc1NC(=O)C(CC(C(=O)Nc1ccccc1OC)/C(C)=N/Nc1ccc([N+](=O)[O-])cc1[N+](=O)[O-])/C(C)=N/Nc1ccc([N+](=O)[O-])cc1[N+](=O)[O-]` (configuration not stated), with inactive: > 100 µM; and `N#CC(NNC(=O)Cc1ccccc1)c1ccccc1O` (configuration not stated), with inactive: 11 µM; and `CC(CN(C)C)C(=O)c1ccccc1` (configuration not stated), with inactive: > 100 µM. Under `N#Cc1c(Nc2nc3ccccc3s2)c2ccccc2n2c1nc1ccccc12` stands inactive: > 100 µM; under `CCCCCCCCCCCCCCCCCCN(C)CC(COC)OP(=O)([O-])OCC[N+](C)(C)C` (configuration not stated), inactive: 6.9 µM. Under `NNc1ncnc2cccc(Cl)c12` stands inactive: > 100 µM. As to `COc1nc(N)nc2c1n(C)c[n+]2C`, the GI50 was inactive: > 100 µM.

Take `CC(C)=CCC(O)[C@](C)(O)[C@H]1[C@H](O)C[C@@]2(C)[C@@H]3CCc4cc(O)c(OC5OC(CO)C(O)C(O)C5O)cc4C3(C)C(=O)C[C@]12C` (some centres not stated): the GI50 is inactive: > 100 µM.

For the compound `CC(=O)O[C@H]1C(=O)[C@@]2(C)C(C(OC(=O)c3ccccc3)C3[C@@H](O)C(OC(=O)[C@@H](O)[C@H](NC(=O)c4ccccc4)c4ccc(C(F)(F)F)cc4)C(C)=C1C3(C)C)[C@]1(OC(C)=O)CO[C@@H]1C[C@@H]2O` (some centres not stated), the GI50 is inactive: > 25 µM. Then `C/C=C1/CN2CCC3(O)c4ccccc4N4C=C(C(=O)OC)C1CC2C43O` (configuration not stated), with inactive: > 100 µM.

As to `CCOC(=O)c1ccc(N[C@@H]2c3cc4c(cc3C(C3=CC(=O)C(=O)C(OC)=C3)[C@H]3C(=O)OCC32)OCO4)cc1` (some centres not stated), the GI50 is inactive: 18 µM. Take `CC1CC[C@]2(C(=O)O)CCC3(C)C(=CC(=O)C4[C@@]5(C)CCC(=O)C(C)(C)C5CC[C@]43C)[C@@H]2[C@H]1C` (some centres not stated): the GI50 was inactive: 27 µM.

On to `COc1cc2c[n+](C)c3c4cc(OC)c(OC)cc4c(OCc4ccccc4)cc3c2cc1OC`, for which the GI50 is inactive: 2.81 µM.

`CCN(CC)CCC(=O)c1ccc(Cl)c(Cl)c1`: the GI50 was inactive: > 100 µM.

In general, GI50 refers to the concentration that inhibits growth by half.
